The results in this text go back to publication PMC11995724, “Antibiotic target discovery by integrated phenotypic and activity-based profiling of electrophilic fragments” (Cell chemical biology, 2025).

About 75 (2%) of roughly 3,200 compounds showed an effect of 50% or more. The list shows a part of the results.

This assay relates to T1, S. aureus MSSA476.
T1 construct: MSSA476
More on the design: species or system S. aureus MSSA476 (TSB) or V. cholerae SAD30 (LB); 384-well bacterial growth screen at 25 uM, OD600 relative to DMSO control. The conditions noted are these: relative growth, OD600, TSB; 25 µM; inhibitor.
Take `COc1cccc(NC(=O)C(C#N)=Cc2ccc(O)cc2)c1` [8-O17, 2-cyano-3-(4-hydroxyphenyl)-N-(3-methoxyphenyl)prop-2-enamide]: the “% of control remaining” value is recorded as 105.892%. As to `Cc1nc(CNC(=O)N2CCSSCC2)cs1` [10-O18, N-[(2-methyl-1,3-thiazol-4-yl)methyl]-1,2,5-dithiazepane-5-carboxamide], the “% of control remaining” value was 110%. As for `Cc1ccc(Sc2ccc(NC(=O)CCl)cc2)c(C)c1` [4-I03, 2-chloro-N-{4-[(2,4-dimethylphenyl)sulfanyl]phenyl}acetamide], the figure is 101.763%; as for `C=CC(=O)NCCc1nnc(-c2ccccc2)o1` [3-J09, N-[2-(5-phenyl-1,3,4-oxadiazol-2-yl)ethyl]prop-2-enamide], 123.64%. The result for `CC1CC(NC(=O)C(C)Cl)=NO1` (stereo not drawn) [5-J21, 2-chloro-N-(5-methyl-4,5-dihydro-1,2-oxazol-3-yl)propanamide] reads 90.3461%; that for `CCn1c2ccccc2c2cc(NC(=O)CCl)ccc21` [4-D06, 2-chloro-N-(9-ethyl-9H-carbazol-3-yl)acetamide], 73.1777%; that for `Cc1ccccc1-n1c(C)cc(C(=O)CCl)c1C` [10-H20, 2-chloro-1-[2,5-dimethyl-1-(2-methylphenyl)-1H-pyrrol-3-yl]ethan-1-one], 118.75%. Take `Cc1ccccc1NC(=O)C(C#N)=Cc1cc(C)n(CC(C)C)c1C` [8-D19, 2-cyano-3-[2,5-dimethyl-1-(2-methylpropyl)-1H-pyrrol-3-yl]-N-(2-methylphenyl)prop-2-enamide]: the “% of control remaining” value was 139.419%. Regarding `C#CCOc1ccccc1C=C(C#N)C(=O)Nc1ccccc1F` [9-C10, 2-cyano-N-(2-fluorophenyl)-3-[2-(prop-2-yn-1-yloxy)phenyl]prop-2-enamide], the “% of control remaining” value is on record as 123.446%. Consider `CCCCNC(=O)C(C#N)=Cc1ccsc1` [9-B13, N-butyl-2-cyano-3-(thiophen-3-yl)prop-2-enamide], for which the “% of control remaining” value is reported as 96.4794%. As for `CC(C)NC(=O)C(C#N)=Cc1ccc(-c2ccc([N+](=O)[O-])cc2)s1` [9-B16, 2-cyano-3-[5-(4-nitrophenyl)thiophen-2-yl]-N-(propan-2-yl)prop-2-enamide], the figure is 110.262%; as for `C=CC(=O)N1CCC(C(=O)NCC(C)c2ncc(C)s2)CC1` (stereo not drawn) [3-P10, N-[2-(5-methyl-1,3-thiazol-2-yl)propyl]-1-(prop-2-enoyl)piperidine-4-carboxamide], 114.236%.

In the case of `N#CC(=Cc1ccc(N2CCCCC2)cc1)C(=O)NC1CC1` [8-O04, 2-cyano-N-cyclopropyl-3-[4-(piperidin-1-yl)phenyl]prop-2-enamide], the “% of control remaining” value was 115.851%. The result for `CCCCNC(=O)C(C#N)=Cc1ccc(Cl)cc1` [9-H13, N-butyl-3-(4-chlorophenyl)-2-cyanoprop-2-enamide] reads 88.9888%; that for `COc1ccc(C=C(C#N)C(=O)Nc2ccccc2C)cc1` [8-P07, 2-cyano-3-(4-methoxyphenyl)-N-(2-methylphenyl)prop-2-enamide], 133.112%. As for `CC(Cl)C(=O)NCC(=O)Nc1ccc2c[nH]nc2c1` (stereo not drawn) [7-N11, 2-chloro-N-{[(2H-indazol-6-yl)carbamoyl]methyl}propanamide], the figure is 91.3658%; as for `O=C(CCl)Cc1c(Cl)cccc1Cl` [10-K15, 1-chloro-3-(2,6-dichlorophenyl)propan-2-one], 99.0625%. Take `CC(Cl)C(=O)Nc1ccc(S(N)(=O)=O)cc1` (stereo not drawn) [6-B06, 2-chloro-N-(4-sulfamoylphenyl)propanamide]: the “% of control remaining” value worked out at 82.2927%. On to `CC(Cl)C(=O)N1CCCC(c2nc(-c3cccc(F)c3)no2)C1` (stereo not drawn) [6-N21, 2-chloro-1-{3-[3-(3-fluorophenyl)-1,2,4-oxadiazol-5-yl]piperidin-1-yl}propan-1-one], for which the “% of control remaining” value turned out to be 81.2683%. Turning to `Cc1cccc(C=C(C#N)C(=O)Nc2ccc(F)cc2)c1` [9-I19, 2-cyano-N-(4-fluorophenyl)-3-(3-methylphenyl)prop-2-enamide], the “% of control remaining” value came to 85.0936%.

`N#Cc1ccccc1N1C(=O)C=CC1=O` [10-B13, 2-(2,5-dioxo-2,5-dihydro-1H-pyrrol-1-yl)benzonitrile]: the “% of control remaining” value was 122.188%. As for `CN(CCOc1ccc(Cl)cc1)C(=O)CCl` [5-D16, 2-chloro-N-[2-(4-chlorophenoxy)ethyl]-N-methylacetamide], the figure is 95.082%; as for `CCOC(=O)C(C#N)=Cc1ccc(N2C(=O)C=CC2=O)cc1` [10-N11, ethyl 2-cyano-3-[4-(2,5-dioxo-2,5-dihydro-1H-pyrrol-1-yl)phenyl]prop-2-enoate], 133.125%.

`C=CC(=O)N1CCC(C(=O)NCC(O)c2cccc(Cl)c2)CC1` (stereo not drawn) [3-M06, N-[2-(3-chlorophenyl)-2-hydroxyethyl]-1-(prop-2-enoyl)piperidine-4-carboxamide]: the “% of control remaining” value amounted to 103.091%. As for `O=C(CCl)N1CCC(Cc2nc(-c3ccc(F)cn3)no2)CC1` [5-K18, 2-chloro-1-(4-{[3-(5-fluoropyridin-2-yl)-1,2,4-oxadiazol-5-yl]methyl}piperidin-1-yl)ethan-1-one], the figure is 104.189%; as for `CC(=O)N(c1ccc(C)c(C)c1)c1nc(C=C(C#N)C(N)=O)cs1` [8-M16, 2-cyano-3-{2-[N-(3,4-dimethylphenyl)acetamido]-1,3-thiazol-4-yl}prop-2-enamide], 107.552%; as for `C=CC(=O)NC(C)Cn1cncn1` (stereo not drawn) [3-C11, N-[1-(1H-1,2,4-triazol-1-yl)propan-2-yl]prop-2-enamide], 100.305%. As for `CC(Cl)C(=O)NCCc1c[nH]c2ncccc12` (stereo not drawn) [7-C12, 2-chloro-N-(2-{1H-pyrrolo[2,3-b]pyridin-3-yl}ethyl)propanamide], the figure is 105.808%; as for `C=CC(=O)Nc1onc(C2CCCCC2)c1CC(C)C` [1-P12, N-[3-cyclohexyl-4-(2-methylpropyl)-1,2-oxazol-5-yl]prop-2-enamide], 92.1319%. As to `C=CC(=O)N1CCOCC1c1cc(F)cc(F)c1` (stereo not drawn) [2-O16, 1-[3-(3,5-difluorophenyl)morpholin-4-yl]prop-2-en-1-one], the “% of control remaining” value came to 111.401%. In the case of `C=CC(=O)Nc1cccc(N2CCOCC2)c1` [1-K04, N-[3-(morpholin-4-yl)phenyl]prop-2-enamide], the “% of control remaining” value came out at 107.956%. The result for `COc1ccccc1NC(=O)C(C#N)=Cc1ccc(C)s1` [8-B15, 2-cyano-N-(2-methoxyphenyl)-3-(5-methylthiophen-2-yl)prop-2-enamide] reads 118.838%; that for `N#Cc1cccc(NC2CCN(C(=O)CCl)C2)c1` (stereo not drawn) [5-I22, 3-{[1-(2-chloroacetyl)pyrrolidin-3-yl]amino}benzonitrile], 95.4463%. Take `C=CC(=O)NCC1SCCS1` [1-C03, N-[(1,3-dithiolan-2-yl)methyl]prop-2-enamide]: the “% of control remaining” value came out at 101.978%.

In the case of `CC(=O)N(c1ccccc1)c1nc(C=C(C#N)C(=O)NC2CC2)cs1` [9-A12, 2-cyano-N-cyclopropyl-3-[2-(N-phenylacetamido)-1,3-thiazol-4-yl]prop-2-enamide], the “% of control remaining” value is given as 100.075%. The result for `Cc1cccc(N2C(=O)C=CC2=O)c1C` [10-H05, 1-(2,3-dimethylphenyl)-2,5-dihydro-1H-pyrrole-2,5-dione] reads 119.375%; that for `O=C(CCl)NC(c1ccccc1)c1nccs1` (stereo not drawn) [5-M13, 2-chloro-N-[phenyl(1,3-thiazol-2-yl)methyl]acetamide], 105.282%. The result for `CC(Cl)C(=O)N1Cc2ccccc2N(C)C[C@@H]1C` (stereo partly drawn) [5-F15, 2-chloro-1-[(3S)-1,3-dimethyl-2,3,4,5-tetrahydro-1H-1,4-benzodiazepin-4-yl]propan-1-one] reads 110.018%; that for `C=CC(=O)N(Cc1ccc(Cl)cc1Cl)CC1CCC(O)C1` (stereo not drawn) [1-B04, N-[(2,4-dichlorophenyl)methyl]-N-[(3-hydroxycyclopentyl)methyl]prop-2-enamide], 92.8352%. `N#CC(=Cc1ccc(-c2ccc(Cl)cc2)o1)C(=O)Nc1ccccc1` [8-O03, 3-[5-(4-chlorophenyl)furan-2-yl]-2-cyano-N-phenylprop-2-enamide]: the “% of control remaining” value amounted to 118.174%.

As for `C=CC(=O)NC[C@H]1CCCN1S(C)(=O)=O` [1-H07, N-{[(2R)-1-methanesulfonylpyrrolidin-2-yl]methyl}prop-2-enamide], the “% of control remaining” value is reported as 112.176%. As for `Cc1ccc(SCCNC(=O)CCl)cc1` [4-K21, 2-chloro-N-{2-[(4-methylphenyl)sulfanyl]ethyl}acetamide], the figure is 162.744%; as for `C=CC(=O)N1CCC(C(=O)Nc2cnn(COC)c2)CC1` [2-H10, N-[1-(methoxymethyl)-1H-pyrazol-4-yl]-1-(prop-2-enoyl)piperidine-4-carboxamide], 87.7285%. For `CC(Cl)C(=O)Nc1cc(Cl)cc(Cl)c1` (stereo not drawn) [4-D17, 2-chloro-N-(3,5-dichlorophenyl)propanamide], the “% of control remaining” value came to 118.914%.

As to `C=CC(=O)N1CCC(C(=O)N(C)Cc2ccc([S+](C)[O-])cc2)CC1` (stereo not drawn) [2-D06, N-[(4-methanesulfinylphenyl)methyl]-N-methyl-1-(prop-2-enoyl)piperidine-4-carboxamide], the “% of control remaining” value was 73.4552%.
